# Data from patent US11618753B2 (priority 2018, dated 2023).
# System: MLKL phosphorylation, HT29-L23 human colorectal adenocarcinoma cells
# Experiment: cells
# Details: read-out: pMLKL HCS Cell Assay (IC50, uM)
row,Compound,IC50 [µM]
1,"COc1ncc(-c2cc(C(F)(F)F)c3c(N)ncnn23)cc1C(=O)N[C@@H]1CN(Cc2cccc(=O)[nH]2)C[C@@H]1F [Example 1380, 5-[4-amino-5-(trifluoromethyl)-pyrrolo[2,1-f][1,2,4]triazin-7-yl]-N-[(3R,4S)-4-fluoro-1-[(6-oxo-1,6-dihydropyridin-2-yl)methyl]pyrrolidin-3-yl]-2-methoxypyridine-3-carbox-amide]",0.242
2,"Cc1cc(F)c(-c2cc(C(F)(F)F)c3c(N)ncnn23)cc1C(=O)N[C@@H]1CN(C(=O)C2CC(F)C2)C[C@@H]1F (stereo partly drawn) [Example 411, 5-[4-amino-5-(trifluoromethyl)pyrrolo[2,1-f][1,2,4]triazin-7-yl]-4-fluoro-N-[(3R,4S)-4-fluoro-1-(3-fluorocyclobutanecarbonyl)pyrrolidin-3-yl]-2-methylbenzamide]",0.0038
3,"COc1ncc(-c2cc(C(F)(F)F)c3c(N)ncnn23)cc1C(=O)Nc1cn(Cc2ccccc2)cn1 [Example 1723, 5-(4-amino-5-(trifluoromethyl)pyrrolo[2,1-f][1,2,4]triazin-7-yl)-N-(1-benzyl-1H-imidazol-4-yl)-2-methoxynicotinamide]",0.0031
4,"COc1ncc(-c2cc(CN3CCC(F)(F)CC3)c3c(N)ncnn23)cc1C(=O)N[C@@H]1CN(C(=O)CC(O)(C(F)(F)F)C(F)(F)F)C[C@@H]1F [Example 1556, 5-{4-amino-5-[(4,4-difluoropiperidin-1-yl)methyl]pyrrolo[2,1-f][1,2,4]triazin-7-yl}-N-[(3R,4S)-4-fluoro-1-[4,4,4-trifluoro-3-hydroxy-3-(trifluoromethyl)butanoyl]pyrrolidin-3-yl]-2-methoxypyridine-3-carboxamide]",0.0035
5,"Nc1ncnn2c(-c3cc(C(=O)N[C@@H]4CN(C(=O)c5ccccc5F)C[C@@H]4F)c(Cl)cc3F)cc(C(F)(F)F)c12 [Example 399, 5-[4-amino-5-(trifluoromethyl)pyrrolo[2,1-f][1,2,4]triazin-7-yl]-2-chloro-4-fluoro-N-[(3R,4S)-4-fluoro-1-(2-fluorobenzoyl)pyrrolidin-3-yl]benzamide]",0.025
6,"CC(C)C(=O)N1C[C@H](F)[C@H](NC(=O)c2cccc(-c3cc(CN4CC(F)(F)C4)c4c(N)ncnn34)c2)C1 [Example 1172, 3-{4-amino-5-[(3,3-difluoroazetidin-1-yl)methyl]pyrrolo[2,1-f][1,2,4]triazin-7-yl}-N-[(3R,4S)-4-fluoro-1-(2-methylpropanoyl)pyrrolidin-3-yl]benzamide]",0.0055
7,"CC(O)(CC(=O)N1C[C@H](F)[C@H](NC(=O)c2c(F)ccc(-c3cc(C(F)(F)F)c4c(N)ncnn34)c2F)C1)C(F)(F)F (stereo partly drawn) [Example 721, 3-[4-amino-5-(trifluoromethyl)pyrrolo[2,1-f][1,2,4]triazin-7-yl]-2,6-difluoro-N-[(3R,4S)-4-fluoro-1-(4,4,4-trifluoro-3-hydroxy-3-methylbutanoyl)pyrrolidin-3-yl]benzamide]",0.129
8,"Nc1ncnn2c(-c3ccc(OC(F)F)c(C(=O)N[C@@H]4CN(C(=O)C5CC(F)(F)C5)C[C@@H]4F)c3)cc(C(F)(F)F)c12 [Example 1095, 5-[4-amino-5-(trifluoromethyl)pyrrolo[2,1-f][1,2,4]triazin-7-yl]-N-[(3R,4S)-1-(3,3-difluorocyclobutanecarbonyl)-4-fluoropyrrolidin-3-yl]-2-(difluoromethoxy)benzamide]",0.013
9,"COc1ncc(-c2cc(C(F)(F)F)c3c(N)ncnn23)cc1C(=O)N[C@@H]1CN(C(=O)C2CCCCO2)C[C@@H]1F (stereo partly drawn) [Example 326, 5-[4-amino-5-(trifluoromethyl)pyrrolo[2,1-f][1,2,4]triazin-7-yl]-N-[(3R,4S)-4-fluoro-1-(oxane-2-carbonyl)pyrrolidin-3-yl]-2-methoxypyridine-3-carboxamide]",0.112
10,"C[C@@](O)(C(=O)N1C[C@H](F)[C@H](NC(=O)c2cc(-c3cc(CN4CC(F)(F)C4)c4c(N)ncnn34)c(F)cc2Cl)C1)C(F)(F)F [Example 1313, 5-{4-amino-5-[(3,3-difluoroazetidin-1-yl)methyl]pyrrolo[2,1-f][1,2,4]-triazin-7-yl}-2-chloro-4-fluoro-N-[(3R,4S)-4-fluoro-1-[(2R)-3,3,3-trifluoro-2-hydroxy-2-methyl-propanoyl]pyrrolidin-3-yl]benzamide]",0.0013
11,"Cc1ncc(-c2cc(C(F)(F)F)c3c(N)ncnn23)cc1C(=O)Nc1cnn(CC(C)(O)C(F)(F)F)c1 (stereo not drawn) [Example 1789, 5-(4-amino-5-(trifluoromethyl)pyrrolo[2,1-f][1,2,4]triazin-7-yl)-2-methyl-N-(1-(3,3,3-trifluoro-2-hydroxy-2-methylpropyl)-1H-pyrazol-4-yl)nicotinamide]",0.067
12,"Cc1cc(-c2cc(C(F)(F)F)c3c(N)ncnn23)cc(C(=O)N[C@@H]2CN(C(=O)C3CCC(F)(F)CC3)C[C@@H]2F)c1Cl [Example 712, 5-[4-amino-5-(trifluoromethyl)pyrrolo[2,1-f][1,2,4]triazin-7-yl]-2-chloro-N-[(3R,4S)-1-(4,4-difluorocyclohexanecarbonyl)-4-fluoropyrrolidin-3-yl]-3-methylbenzamide]",0.031
13,"COc1cc(F)c(-c2cc(CN3CCC(F)(F)CC3)c3c(N)ncnn23)cc1C(=O)N[C@@H]1CN(C(=O)C2CC2(F)F)C[C@@H]1F (stereo partly drawn) [Example 1634, 5-{4-amino-5-[(4,4-difluoropiperidin-1-yl)methyl]pyrrolo[2,1-f][1,2,4]triazin-7-yl}-N-[(3R,4S)-1-(2,2-difluorocyclopropanecarbonyl)-4-fluoropyrrolidin-3-yl]-4-fluoro-2-methoxybenzamide]",0.0033
14,"COc1ncc(-c2cc(C)c3c(N)ncnn23)cc1C(=O)Nc1cnn(Cc2ccccc2)c1 [Example 42, 5-{4-amino-5-methylpyrrolo[2,1-f][1,2,4]triazin-7-yl}-N-(1-benzyl-1H-pyrazol-4-yl)-2-methoxypyridine-3-carboxamide]",0.0087
15,"CC(C)(O)C(=O)N1C[C@H](F)[C@H](NC(=O)c2cccc(-c3cc(CN4CC(F)(F)C4)c4c(N)ncnn34)c2)C1 [Example 1166, 3-{4-amino-5-[(3,3-difluoroazetidin-1-yl)methyl]pyrrolo[2,1-f][1,2,4]triazin-7-yl}-N-[(3R,4S)-4-fluoro-1-(2-hydroxy-2-methylpropanoyl)pyrrolidin-3-yl]benzamide]",0.0086
16,"Cc1nc(C)c(-c2cc(C(F)(F)F)c3c(N)ncnn23)cc1C(=O)N[C@@H]1CN(C(=O)c2cccc(F)c2)C[C@@H]1F [Example 1191, 5-[4-amino-5-(trifluoromethyl)pyrrolo[2,1-f][1,2,4]triazin-7-yl]-N-[(3R,4S)-4-fluoro-1-(3-fluorobenzoyl)pyrrolidin-3-yl]-2,6-dimethylpyridine-3-carboxamide]",0.022
17,"COc1ncc(-c2cc(CN3CCC(F)(F)CC3)c3c(N)ncnn23)cc1C(=O)N[C@@H]1CN(C(=O)[C@@](C)(O)C(F)(F)F)C[C@@H]1F [Example 1586, 5-{4-amino-5-[(4,4-difluoropiperidin-1-yl)methyl]pyrrolo[2,1-f][1,2,4]triazin-7-yl}-N-[(3R,4S)-4-fluoro-1-[(2R)-3,3,3-trifluoro-2-hydroxy-2-methylpropanoyl]pyrrolidin-3-yl]-2-methoxypyridine-3-carboxamide]",0.0006
18,"COc1ncc(-c2cc(C(F)(F)F)c3c(N)ncnn23)cc1C(=O)N[C@@H]1CN(C(=O)OC2CC2)C[C@@H]1F [Example 1447, cyclopropyl (3R,4S)-3-{5-[4-amino-5-(trifluoromethyl)pyrrolo[2,1-f][1,2,4]triazin-7-yl]-2-methoxypyridine-3-amido}-4-fluoropyrrolidine-1-carboxylate]",0.0075
19,"CC(C)(F)C(=O)N1C[C@H](F)[C@H](NC(=O)c2cncc(-c3cc(C(F)(F)F)c4c(N)ncnn34)c2)C1 [Example 278, 5-[4-amino-5-(trifluoromethyl)pyrrolo[2,1-f][1,2,4]triazin-7-yl]-N-[(3R,4S)-4-fluoro-1-(2-fluoro-2-methylpropanoyl)pyrrolidin-3-yl]pyridine-3-carboxamide]",0.249
20,"Nc1ncnn2c(-c3cc(C(=O)N[C@@H]4CN(C(=O)CC(O)(C(F)(F)F)C(F)(F)F)C[C@@H]4F)c(F)cc3F)cc(C(F)(F)F)c12 [Example 784, 5-[4-amino-5-(trifluoromethyl)pyrrolo[2,1-f][1,2,4]triazin-7-yl]-2,4-difluoro-N-[(3R,4S)-4-fluoro-1-[4,4,4-trifluoro-3-hydroxy-3-(trifluoromethyl)butanoyl]pyrrolidin-3-yl]benzamide]",0.0026
21,"Nc1ncnn2c(-c3cc(F)c(CF)c(C(=O)N[C@@H]4CN(C(=O)C5CC5(F)F)C[C@@H]4F)c3)cc(C(F)(F)F)c12 (stereo partly drawn) [Example 614, 5-[4-amino-5-(trifluoromethyl)pyrrolo[2,1-f][1,2,4]triazin-7-yl]-N-[(3R,4S)-1-(2,2-difluorocyclopropanecarbonyl)-4-fluoropyrrolidin-3-yl]-3-fluoro-2-(fluoromethyl)benzamide]",0.0026
22,"COc1cc(C(=O)N[C@@H]2CN(C(=O)C(C)(C)O)C[C@@H]2F)cc(-c2cc(C(F)(F)F)c3c(N)ncnn23)c1 [Example 588, 3-[4-amino-5-(trifluoromethyl)pyrrolo[2,1-f][1,2,4]triazin-7-yl]-N-[(3R,4S)-4-fluoro-1-(2-hydroxy-2-methylpropanoyl)pyrrolidin-3-yl]-5-methoxybenzamide]",0.157
23,"Cc1nc(C)c(-c2cc(C(F)(F)F)c3c(N)ncnn23)cc1C(=O)N[C@@H]1CN(C(=O)CC(O)(C(F)(F)F)C(F)(F)F)C[C@@H]1F [Example 1201, 5-[4-amino-5-(trifluoromethyl)pyrrolo[2,1-f][1,2,4]triazin-7-yl]-N-[(3R,4S)-4-fluoro-1-[4,4,4-trifluoro-3-hydroxy-3-(trifluoromethyl)butanoyl]pyrrolidin-3-yl]-2,6-dimethylpyridine-3-carboxamide]",0.015
24,"Nc1ncnn2c(-c3ccc(F)c(C(=O)N[C@@H]4CN(C(=O)C5CCC(F)(F)CC5)C[C@@H]4F)c3)cc(C(F)(F)F)c12 [Example 255, 5-[4-amino-5-(trifluoromethyl)pyrrolo[2,1-f][1,2,4]triazin-7-yl]-N-[(3R,4S)-1-(4,4-difluorocyclohexanecarbonyl)-4-fluoropyrrolidin-3-yl]-2-fluorobenzamide]",0.093
